Data reported in the supplement of paper PMC10369915.
Some of the results follow. No stated cut-off is given here; in the data, active = 3.2 or more and inactive = the rest. Most of these values are background signal.

How the values were obtained:
Assay in all cases: enrichment score (SH2-bound / input frequency) (ratio); bacterial display of known human phosphotyrosine sites (pTyr-Var adds point mutants) read by sequencing; higher = stronger binding; tyrosines were phosphorylated by kinases first
Conditions in all cases: peptide library: Human pTyr
SHP2 C-SH2 domain E139D = biological target: SHP2 C-SH2 domain E139D
[1] = biological target: SHP2 C-SH2 domain wild-type
SHP2 N-SH2 domain L43F = biological target: SHP2 N-SH2 domain L43F
SHP2 N-SH2 domain T42A = biological target: SHP2 N-SH2 domain T42A
SHP2 N-SH2 domain T52S = biological target: SHP2 N-SH2 domain T52S
[2] = biological target: SHP2 N-SH2 domain wild-type
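Further: displayed peptides selected on beads carrying the immobilized SH2 domain, with library peptides lacking any tyrosine serving as negative controls.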

Binder | enrichment score (SHP2 C-SH2 domain E139D) | enrichment score [1] | enrichment score (SHP2 N-SH2 domain L43F) | enrichment score (SHP2 N-SH2 domain T42A) | enrichment score (SHP2 N-SH2 domain T52S) | enrichment score [2]
APSSGQIYGSGPQGA [LPP_HUMAN_244_YA] | inactive: 0.657 | inactive: 0.424 | inactive: 0.634 | inactive: 0.575 | inactive: 0.499 | inactive: 0.846
ASPVVAEYARVQKRK [LIME1_HUMAN_167] | inactive: 0.521 | inactive: 0.479 | inactive: 0.63 | inactive: 0.623 | inactive: 0.614 | inactive: 0.706
ALDEAAAYQSRDAAN [ANDR_HUMAN_359_YA] | inactive: 0.522 | inactive: 0.378 | inactive: 0.561 | inactive: 0.502 | inactive: 0.53 | inactive: 0.503
VTREEPIYIITEAMA [LYN_HUMAN_316_YA] | inactive: 0.727 | inactive: 0.781 | inactive: 1.26 | inactive: 1.29 | inactive: 0.919 | inactive: 0.856
ANADGKDYDPVAARQ [MARE1_HUMAN_124_YA] | inactive: 0.698 | inactive: 0.531 | inactive: 0.908 | inactive: 0.624 | inactive: 0.787 | inactive: 0.575
ENCPDELYDIMKMCW [LYN_HUMAN_473] | inactive: 1.07 | inactive: 0.958 | inactive: 0.854 | inactive: 0.894 | inactive: 1.14 | inactive: 1.35
TNFTNPVYATLAMGG [LRP1_HUMAN_4507_YA] | inactive: 1.57 | inactive: 2.44 | inactive: 1.62 | active: 4.07 | inactive: 1.32 | inactive: 0.762
AYQSRDYYNFPLALA [ANDR_HUMAN_365] | inactive: 1.99 | inactive: 2.27 | inactive: 1.97 | inactive: 2.22 | inactive: 2.21 | inactive: 2.59
GYYDRMDYEDDRLRD [MATR3_HUMAN_219] | inactive: 0.887 | inactive: 0.786 | inactive: 0.877 | inactive: 0.65 | inactive: 0.652 | inactive: 0.747
DIYRASYYRRGDRAL [LTK_HUMAN_677] | inactive: 0.584 | inactive: 0.636 | inactive: 0.635 | inactive: 0.653 | inactive: 0.61 | inactive: 0.764
IPERDSRYSQPLHEE [M3K5_HUMAN_718] | inactive: 0.731 | inactive: 0.734 | inactive: 0.904 | inactive: 0.721 | inactive: 0.887 | inactive: 0.862
KLENPLDYGSAWAAA [ANDR_HUMAN_395] | inactive: 0.832 | inactive: 0.735 | inactive: 0.85 | inactive: 0.888 | inactive: 0.877 | inactive: 1.09
EASQDVTYAQLHSLT [LIRB3_HUMAN_595] | inactive: 0.749 | inactive: 1.05 | inactive: 0.621 | inactive: 2.31 | inactive: 0.742 | inactive: 0.696
GIQAEPLYRVVSNTI [MAP1A_HUMAN_177] | inactive: 0.545 | inactive: 0.499 | inactive: 0.584 | inactive: 0.481 | inactive: 0.531 | inactive: 0.477
SCRPRSEYQPSDAPF [MAP6_HUMAN_143] | inactive: 1.33 | inactive: 1.05 | inactive: 1.06 | inactive: 1.21 | inactive: 1.25 | inactive: 1.29
IDAGCKPYMAPERIN [MAP2K6_HUMAN_219] | inactive: 1.15 | inactive: 0.967 | inactive: 0.921 | inactive: 1.04 | inactive: 1.22 | inactive: 1.05
YGLAHSNYKEDYYLT [LMTK3_HUMAN_292] | inactive: 1.2 | inactive: 1 | inactive: 0.776 | inactive: 1.01 | inactive: 0.745 | inactive: 0.799
YGLAHCKYREDYFVT [LMTK1_HUMAN_279] | inactive: 1.57 | inactive: 1.35 | inactive: 1.49 | inactive: 1.28 | inactive: 1.89 | inactive: 2.28

Binder | enrichment score (SHP2 C-SH2 domain E139D) | enrichment score [1] | enrichment score (SHP2 N-SH2 domain L43F) | enrichment score (SHP2 N-SH2 domain T42A) | enrichment score (SHP2 N-SH2 domain T52S) | enrichment score [2]
SNYKEDYYLTPERLW [LMTK3_HUMAN_297] | inactive: 0.94 | inactive: 0.926 | inactive: 1.34 | inactive: 1.44 | inactive: 1.13 | inactive: 0.752
SNAKEDAYLTPERLW [LMTK3_HUMAN_297_YA] | inactive: 0.744 | inactive: 0.497 | inactive: 1.43 | inactive: 1.11 | inactive: 1.11 | inactive: 0.783
FKPEIQVYENIHLAR [LY66F_HUMAN_281] | inactive: 1.13 | inactive: 1.18 | inactive: 1.05 | inactive: 0.911 | inactive: 1.07 | inactive: 1.63
EEGPTLSYGRDGRSA [MATR3_HUMAN_158] | inactive: 0.693 | inactive: 0.575 | inactive: 0.6 | inactive: 0.557 | inactive: 0.535 | inactive: 0.541
SQPPYTDYVSTRWYR [MAK_HUMAN_159] | inactive: 1.45 | inactive: 1.1 | inactive: 1.16 | inactive: 1.08 | inactive: 1.36 | inactive: 1.21
GAADRMDYEDDRLRD [MATR3_HUMAN_219_YA] | inactive: 0.727 | inactive: 0.621 | inactive: 0.496 | inactive: 0.62 | inactive: 1.04 | inactive: 0.692
TNASNPVYAKLAMDG [LRP1B_HUMAN_4562_YA] | inactive: 1.45 | inactive: 2.73 | inactive: 1.67 | active: 5.06 | inactive: 1.43 | inactive: 0.764
SDEDDEVYQVTVYQA [MDM2_HUMAN_276] | inactive: 1.36 | inactive: 1.19 | inactive: 1.16 | inactive: 1.16 | inactive: 1.43 | inactive: 1.56
FGMARDIYRASAARR [LTK_HUMAN_672_YA] | inactive: 0.561 | inactive: 0.568 | inactive: 0.628 | inactive: 0.523 | inactive: 0.551 | inactive: 0.839
GDDSDEDYEKVPLPN [3BP2_HUMAN_448] | inactive: 1.1 | inactive: 0.964 | inactive: 0.967 | inactive: 0.825 | inactive: 1.03 | inactive: 1.17
ANYDGKEYDPVEARQ [MARE2_HUMAN_167] | inactive: 0.585 | inactive: 0.782 | inactive: 0.563 | inactive: 0.598 | inactive: 0.637 | inactive: 0.713
NDKKSIYYLGVTSIK [LEPR_HUMAN_1079] | inactive: 2 | inactive: 2.24 | inactive: 2.01 | inactive: 1.92 | inactive: 1.9 | inactive: 2.45
WASKDATYTSARTLL [MCM7_HUMAN_600] | inactive: 0.64 | inactive: 0.746 | inactive: 0.634 | inactive: 0.677 | inactive: 0.694 | inactive: 0.81
EVAQVTVYQAGESDT [MDM2_HUMAN_281_YA] | inactive: 0.806 | inactive: 0.651 | inactive: 0.638 | inactive: 0.606 | inactive: 0.828 | inactive: 0.658
TLKDQLIYNLLKEEQ [LDHA_HUMAN_10] | inactive: 0.81 | inactive: 0.904 | inactive: 1.02 | inactive: 0.658 | inactive: 1.27 | inactive: 1.09
KMAEMKKYTLENKEE [LRC47_HUMAN_509] | inactive: 1.25 | inactive: 1.3 | inactive: 1.42 | inactive: 1.09 | inactive: 1.44 | inactive: 1.77
AGIGFSRYKEDAIET [LMTK2_HUMAN_291_YA] | inactive: 1.02 | inactive: 0.972 | inactive: 0.976 | inactive: 1.3 | inactive: 1.18 | inactive: 1.01
EKIDDPIYGTYYVDH [MAGI2_HUMAN_362] | inactive: 1.29 | inactive: 1.16 | inactive: 1.08 | inactive: 1.27 | inactive: 1.34 | inactive: 1.06
